Among the data in PubChem BioAssay (NCATS) are AC50, z-score and max response values, retold here.

A short description of experiment [1]: qHTS drug screen for cell cycle checkpoint inhibitors in PARPi-resistant BRCA-mutant ovarian cancer cell lines. (AID 1963452). The conditions noted are these: PEO1/OlaR viability, CellTiter-Glo luminescence, 96 h. The procedure, abridged:
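PEO1, PEO4 and PEO1/OlaR ovarian cancer cells, 600 per well, exposed 96 h at 37C to a dilution series. Viability read by CellTiter-Glo luminescence, normalized to DMSO and empty wells; activity summarized as Z-AUC.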

Experiment [2] in a line: qHTS for identification of novel therapeutic agents for treatment of microphthalmiaassociated transcription factor (MiT) renal cell carcinoma (RCC) (AID 1963991). The following applies: CellTiter-Glo, 48 h; for z-score: stronger effect = lower value. The procedure, abridged:
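Three TFE3-fusion RCC lines (UOK109, UOK124, UOK145), 500 cells/well in complete medium, were treated with MIPE 4.0 compounds for 48 hours at 37 C. Viability was by CellTiter-Glo luminescence, normalized to DMSO (100%) and empty wells (0%); curves fitted over 11 concentrations.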
A general note: In qHTS, concentration-response curves come from the screen itself.

The nature of experiment [3]: qHTS Assay for Modulators of Human Peripheral Myelin Protein 22 (PMP22) Expression/Activity (AID 1967). The following applies: Cell-based PMP22 reporter, dual-color luciferase ratio; measured here: red reporter channel AC50; EF-alpha promoter control reporter in MSC80 mouse Schwann cells. The procedure, abridged:
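Quantitative HTS in a mouse Schwann cell line expressing dual click beetle luciferases: Pmp22 promoter (green) and control EF-alpha promoter (red). After 24h treatment, corrected green/red signal ratio gave %Activity relative to untreated cells.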

The nature of experiment [4]: qHTS assay for small molecule antagonists of peroxisome proliferator-activated receptor gamma signaling (AID 588537). The following applies: HEK293 PPARg-UAS-bla, beta-lactamase ratio, antagonist mode; measured here: W460 blue channel. The procedure, abridged: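 Antagonist mode, beta-lactamase reporter in HEK293; charcoal/dextran FBS 1%; 3000 cells/well, 37 C 6-6.5 h; cpd titration + rosiglitazone 50 nM final, 16 h 37 C; CCF4, 2 h RT; 460/530 nm; Hill fit → IC50, efficacy.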

A short description of experiment [5]: qHTS assay for small molecule antagonists of peroxisome proliferator-activated receptor delta signaling (AID 588535).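 Further: cells co-treated with a PPAR-delta agonist as stimulator during compound exposure.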 The following applies: HEK293T PPARd-UAS-bla, beta-lactamase FRET ratio, 18 h; 460 nm channel. The procedure, abridged:
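HEK293T PPAR-delta-UAS-bla cells, 4000/well, 2% charcoal/dextran FBS; 5 h 37 C; cpd titration; 18 h 37 C; CCF4 2 h RT; FI 460/530 nm; Hill fit → IC50, efficacy.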

[6] abbreviates: TFE3-RCC UOK109 viability, measured here: UOK109 Z-AUC.
[7] abbreviates: TFE3-RCC viability, measured here: UOK124 Z-AUC.
Setting [8] is: TFE3-RCC viability, measured here: UOK145 Z-AUC.
[9] abbreviates: TFE3-RCC viability, measured here: UOK145 cell viability.
Where [10] appears, read: measured here: PEO1 parental viability.
Where [11] appears, read: TFE3-RCC viability, measured here: UOK124 cell viability.

“And” between values parts separate entries of the source, which are not always exact repeats. Equal values may be shown once. This is one part of the list. Shown are side measurements of this screen, not its main read-out; they come without a call. For some assays here: The list favours compounds with an active or inconclusive main result. For some assays here: Words in brackets tell the shape of the fitted curve; partial curves, single points and poor fits give uncertain potencies.
Tags describe the fitted curve by direction and shape.

In general, AC50 refers to the concentration at which the activity in the assay is half-maximal. For `COc1cccc(-c2ccc(NC(=O)C3=C(C(=O)O)CCC3)c(F)c2)c1`, the half-maximal activity concentration (AC50) was 4.36 µM [falling, full curve, poor fit] in experiment [1] (measured here: PEO4 viability) and 16.6 µM [falling, partial curve] in experiment [2] (setting [9]). Also, the results for the z-score in experiment [2] (setting [6]), in experiment [2] (setting [7]) and in experiment [2] (setting [8]) were 0.473, 0.489 and 0.439, respectively.
In the case of `NCC(=O)Nc1ccc(-n2nc(C(F)(F)F)cc2-c2ccc3c(ccc4ccccc43)c2)cc1`, the AC50 in experiment [1] (setting [10]) was 9.77 µM [falling, partial curve, poor fit]; in experiment [2] (setting [11]) it was 26.4 µM [falling, partial curve]; in experiment [2] (setting [9]), 18.7 µM [falling, partial curve]. The z-score in experiment [2] (setting [6]) was 0.694; in experiment [2] (setting [7]) it was 1.84; in experiment [2] (setting [8]) it was -0.0972.
`CN1CCC(=C2c3ccccc3CCc3sccc32)CC1`: the AC50 in experiment [1] (measured here: PEO4 viability) is 27.5 µM [falling, single point]; in experiment [2] (setting [11]) it was 20.9 µM [falling, partial curve]; in experiment [2] (setting [9]), 33.2 µM [falling, partial curve, poor fit]. Moreover, the z-score in experiment [2] (setting [6]) is 0.48; in experiment [2] (setting [7]) it was -0.0304; in experiment [2] (setting [8]), 1.35.
On to `CN(C)CCN1C(=O)c2cccc3cc(N)cc(c23)C1=O`, for which the AC50 was 17.4 µM [falling, partial curve] in experiment [1] (setting [10]); 3.72 µM [falling, full curve] in experiment [2] (setting [11]); 3.32 µM [falling, full curve] in experiment [2] (setting [9]). In addition, the z-score is -0.397 in experiment [2] (setting [6]), -0.123 in experiment [2] (setting [7]) and -0.447 in experiment [2] (setting [8]).
Turning to `CC(C)c1cc(C(C)C)c(CC(=O)NS(=O)(=O)Oc2c(C(C)C)cccc2C(C)C)c(C(C)C)c1`, the AC50 was 6.92 µM [falling, partial curve] in experiment [1] (measured here: PEO4 viability); 26.4 µM [falling, single point] in experiment [2] (setting [11]); 20.9 µM [falling, partial curve] in experiment [2] (setting [9]). The z-score in experiment [2] (setting [6]) was 0.00666; in experiment [2] (setting [7]), 0.684; in experiment [2] (setting [8]), 0.372.
As to `CC1(C)CCC(CN2CCN(c3ccc(C(=O)NS(=O)(=O)c4ccc(NCC5CCOCC5)c([N+](=O)[O-])c4)c(Oc4cnc5[nH]ccc5c4)c3)CC2)=C(c2ccc(Cl)cc2)C1`, the half-maximal activity concentration (AC50) was 15.5 µM [falling, single point] in experiment [1] (measured here: PEO4 viability); 26.4 µM [falling, single point] in experiment [2] (setting [11]); 26.4 µM [falling, single point] in experiment [2] (setting [9]). In addition, the z-score in experiment [2] (setting [6]) is 0.268; in experiment [2] (setting [7]), 0.024; in experiment [2] (setting [8]), 0.313.
Consider `Cc1cc(-c2ccc(CC(=O)Nc3ccc(-c4cccnc4)cc3)cc2)ccn1`, for which the AC50 was 2.45 µM [falling, full curve, poor fit] in experiment [1] (setting [10]); 18.7 µM [falling, partial curve, poor fit] in experiment [2] (setting [11]); 20.9 µM [falling, partial curve] in experiment [2] (setting [9]). Besides, the z-score in experiment [2] (setting [6]) is 0.00414; in experiment [2] (setting [7]), 0.767; in experiment [2] (setting [8]), 0.0329.
As to `COc1ccc2[nH]cc(CCNC(C)=O)c2c1`, the half-maximal activity concentration (AC50) in experiment [3] is 84.9 µM [falling, single point]; in experiment [4] it was 50.1 µM [rising, single point]; in experiment [1] (setting [10]) it was 0.0087 µM [rising, full curve, poor fit]; in experiment [2] (setting [9]), 0.0418 µM [rising, full curve]. Also, the z-score in experiment [2] (setting [6]) is 0.276; in experiment [2] (setting [7]) it was 0.533; in experiment [2] (setting [8]), -2.63.
Regarding `C[C@H]1[C@@H](OC(=O)CCC(=O)O)O[C@@H]2O[C@@]3(C)CC[C@@H]4[C@H](C)CC[C@@H]1[C@@]24OO3`, the AC50 in experiment [1] (setting [10]) was 4.36 µM [falling, partial curve]; in experiment [2] (setting [11]), 20.9 µM [falling, partial curve]; in experiment [2] (setting [9]), 23.5 µM [falling, partial curve]. The z-score stood at 0.187 in experiment [2] (setting [6]), 0.455 in experiment [2] (setting [7]) and 0.175 in experiment [2] (setting [8]).
Consider `O=C1CN2Cc3c(ccc(Cl)c3Cl)N=C2N1`, for which the AC50 was 0.0087 µM [rising, full curve, poor fit] in experiment [1] (measured here: PEO4 viability); 18.7 µM [falling, partial curve] in experiment [2] (setting [11]); 29.6 µM [falling, partial curve, poor fit] in experiment [2] (setting [9]). The z-score in experiment [2] (setting [6]) was 0.884; in experiment [2] (setting [7]), 0.65; in experiment [2] (setting [8]) it was 0.355.
As to `C[C@@H]1C[C@H]2[C@@H]3CCC4=CC(=O)C=C[C@]4(C)[C@@]3(F)[C@@H](O)C[C@]2(C)[C@@]1(O)C(=O)CO`, in experiment [5], the max response was 47.8% and 85.9%. Moreover, the AC50 in experiment [1] (measured here: PEO4 viability) is 0.0078 µM [falling, full curve, poor fit].
On to `CCc1cc2c(cc1N1CCC(N3CCOCC3)CC1)C(C)(C)c1[nH]c3cc(C#N)ccc3c1C2=O`, for which the AC50 in experiment [1] (measured here: PEO4 viability) is 1.51 µM [falling, partial curve, poor fit]; in experiment [2] (setting [11]) it was 0.00833 µM [rising, full curve, poor fit]; in experiment [2] (setting [9]), 0.00469 µM [rising, full curve]. For the same compound, the values for the z-score in experiment [2] (setting [6]), in experiment [2] (setting [7]) and in experiment [2] (setting [8]) were -0.166, 0.45 and -1.06, respectively.
`CCC(=O)N[C@H]1CC[C@H](C(=O)N(C)c2ccc(-c3nc4ccccc4o3)cc2)C1`: the AC50 in experiment [1] (setting [10]) is 15.5 µM [falling, partial curve]; in experiment [2] (setting [11]), 26.4 µM [falling, single point]; in experiment [2] (setting [9]), 5.9 µM [falling, partial curve]. For the same compound, the z-score in experiment [2] (setting [6]) is -0.331; in experiment [2] (setting [7]), 0.101; in experiment [2] (setting [8]), -0.512.
